# Reference: PubChem BioAssay AID651820 (National Center for Advancing Translational Sciences (NCATS), 2012)
# “And” between values parts separate entries of the source, which are not always exact repeats. Identical values can stand only once. Hit rate of the full screen: of about 340,000 compounds, about 12,000 (3.5%) were called active. Inconclusive results, whose numbers are uncertain, are shown with a selection of clear calls. The call rests on the fitted dose curve; in most records, active means well fitted inhibition curve with a large enough effect; inconclusive means small, poorly fitted or top-dose-only effect, or another doubt; inactive means no such curve, though single readings can be large or run the other way. Where the call is inconclusive, the potency comes from a doubtful curve fit.
# Assay: qHTS Assay for Inhibitors of Hepatitis C Virus (HCV)
# Conditions: Huh7.5.1 HCVcc-Cre (HCVcc is cell-culture hepatitis C virus) infection, luciferase reporter, 44 h; activity change, negative = inhibition: at 41.8 µM (top of the series) unless noted
# How it was run: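 Antiviral activity was scored by luciferase reporter output from cells infected with HCVcc-Cre (~0.5 moi) in presence of compound, 44 h infection period, cells seeded 1,000/well 4 h prior.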
# On the % scale 0 is the no-effect control and ±100 the full control effect; potency means the concentration at half of the fitted maximal effect; tags describe the fitted curve by direction and shape.
SMILES,Potency,"activity change, negative = inhibition"
Cc1ccc(NC(=O)OCC(F)(F)C(F)F)cc1NC(=O)OCC(F)(F)C(F)F,"inconclusive: 31.6 µM [inhibitor, single point]",
CSc1nc(N2CCN(Cc3ccc4c(c3)OCO4)CC2)c2ccccc2n1,"inconclusive: 10 µM [inhibitor, partial curve]",
CC(C)[C@H](NC(=O)OC(C)(C)C)c1nnc(SCC(=O)Nc2ccc(Br)cc2)o1,"inconclusive: 22.4 µM [inhibitor, single point]",
CN(C)S(=O)(=O)Nc1cccc(NC(=O)CC23CC4CC(CC(C4)C2)C3)c1,,inactive: -17.9%
Cc1c(C(=O)OCCOC(C)C)[nH]c2c1C(=O)CC(c1ccco1)C2 (stereo not drawn),"inconclusive: 10 µM [inhibitor, partial curve]",
CC1CC(C)CN(C(=O)COC(=O)CN2C(=O)c3ccccc3C2=O)C1 (stereo not drawn),,inactive: 2.81%
O=C(Nc1ccc(S(=O)(=O)NCCc2ccccc2)cc1)c1ccncc1,active: 11.2 µM,
COc1cccc(-c2nc(-c3ccc(NC(=O)c4ccncc4)cc3)no2)c1,"inconclusive: 0.501 µM [inhibitor, full curve, poor fit]",
COc1ccc(/C=C/C(=O)C2CC2)cc1Cn1nc(C)c([N+](=O)[O-])c1C,,inconclusive: -55.4% [inhibitor]
CC1(C)CC(=O)c2c(n(S(=O)(=O)c3ccccc3)c3ccc(NS(=O)(=O)c4ccccc4)cc23)C1,"inconclusive: 28.2 µM [inhibitor, single point]",
Cc1ccc(C)c(NS(=O)(=O)c2cc(C(=O)Nc3cccc(N(C)S(C)(=O)=O)c3)ccc2C)c1,"inconclusive: 31.6 µM [inhibitor, single point]",
O=C(N/N=C/c1ccc(F)cc1)c1cc[n+]([O-])cc1,,inactive: 16.9%
O=C(CSc1nnc(-c2ccco2)c(-c2ccco2)n1)c1ccccc1,active: 2.82 µM,
O=C(CN1C(=O)c2ccccc2S1(=O)=O)c1ccccc1,,inactive: -3.7%
CCN(CC)c1ccc2c(c1)CCCN2,active: 11.2 µM,
CNC(=O)c1cnn(-c2nc(-c3ccc(OC)cc3)cs2)c1C(F)(F)F,"inconclusive: 6.31 µM [inhibitor, partial curve]",
CC(=O)n1cc(N(C(=O)CCl)c2ccc(C)cc2)c2ccccc21,active: 1.58 µM,
CCCc1cc(=O)oc2cc(C)cc(OC(C)C(=O)NCc3ccncc3)c12 (stereo not drawn),"inconclusive: 3.98 µM [inhibitor, full curve, poor fit]",
CCN(CC(=O)Nc1ccc2c(c1)OCCO2)C(=O)COc1cc(C)ccc1Cl,"inconclusive: 31.6 µM [inhibitor, single point]",
O=C(Nc1nc2cc3c(cc2s1)OCCO3)C1CCCCC1,"inconclusive: 5.01 µM [inhibitor, full curve, poor fit]",
Cc1cccc(OCCCC(=O)NNC(=O)c2ccccn2)c1,"inconclusive: 22.4 µM [inhibitor, single point]",
C=CCN(C(=O)CSC1=NC(=O)CN1C(C)=O)c1nc(C)c(-c2ccccc2)s1,"inconclusive: 31.6 µM [inhibitor, single point]",
O=C(c1noc2c1CCc1ccccc1-2)N1CCCc2ccccc21,"inconclusive: 31.6 µM [inhibitor, single point]",

SMILES,Potency,"activity change, negative = inhibition"
O=C(O)CCn1ccc2cc(S(=O)(=O)N3CCCCCC3)ccc21,,inactive: 8.87%
COc1ccc(O)c(-c2cc(-c3ccccc3Cl)[nH]n2)c1,"inconclusive: 22.4 µM [inhibitor, single point]",
CC(=NNC(=S)N1CC2CCC(CC2)C1)c1cnccn1,"inconclusive: 2.24 µM [inhibitor, full curve]",
CC(C)c1ccc(NC(=O)Cc2ccc(NC3=NC4CS(=O)(=O)CC4S3)cc2)cc1 (stereo not drawn),,inactive: 1.89%
COc1ccc(-c2csc(NC(=O)c3c(C)noc3C)n2)cc1F,"inconclusive: 22.4 µM [inhibitor, single point]",
O=C(N/C(=C\c1ccc(Cl)cc1)C(=O)N1CCOCC1)c1ccc([N+](=O)[O-])cc1,,inactive: 5.6%
Cn1ncc(Cl)c1C(=O)Nc1nc2ccc(Cl)cc2s1,"inconclusive: 31.6 µM [inhibitor, single point]",
Cc1ccc(N(CC2=NCCN2)c2cccc(O)c2)cc1,"inconclusive: 10 µM [inhibitor, single point]",
O=c1c2c([N+](=O)[O-])cc([N+](=O)[O-])cc2sn1-c1ccc(Br)cc1,"inconclusive: 10 µM [inhibitor, single point]",
O=C(CN1C2CCCC1CC(NC(=O)c1ccco1)C2)Nc1ccccc1C(F)(F)F (stereo not drawn),"inconclusive: 22.4 µM [inhibitor, single point]",
CCCSc1nnc(NC(=O)Nc2ccc(F)cc2)s1,"inconclusive: 31.6 µM [inhibitor, partial curve]",
CCc1nc(SCC(=O)N2CCOCC2)c2c(=O)n(C)c(=O)n(C)c2n1,"inconclusive: 22.4 µM [inhibitor, single point]",
Cc1ccc(OCc2nnc(SCC(=O)Nc3cccc4ccccc34)n2-c2ccccc2)cc1,"inconclusive: 7.08 µM [inhibitor, partial curve]",
CC(=O)NC(NC(=S)Nc1ccc(N=Nc2ccccc2C)cc1C)C(Cl)(Cl)Cl (stereo not drawn),"inconclusive: 12.6 µM [inhibitor, partial curve]",
NC1(C#Cc2ccc3oc(=O)c(-n4cc(-c5ccsc5)nn4)cc3c2)CCCCC1,"inconclusive: 28.2 µM [inhibitor, single point]",
COc1ccc(/C=C/C(O)=C2/C(=O)NC3(C)CC2c2ccccc2O3)c(OC)c1OC (stereo not drawn),"inconclusive: 4.47 µM [inhibitor, partial curve]",
Cc1nc([N+](=O)[O-])c(C(=O)OCc2ccccc2Br)n1C,,inactive: -10.1%
O=C(COC(=O)CC1CC2CCC1C2)NCc1ccc(F)cc1 (stereo not drawn),,inactive: -15.1%
COc1cc2oc3ccccc3c(=O)c2cc1OC,"inconclusive: 25.1 µM [inhibitor, single point]",
O=C(Cn1cc(C(F)(F)F)cc(Cl)c1=O)NCc1ccc(Cl)cc1,,inactive: 17.3%
CC1Cc2ccccc2N1S(=O)(=O)c1cccc(C(=O)NC2CC2)c1 (stereo not drawn),,inactive: -29.9%
CCC(C)[C@H](NC(=O)N1CC(=O)Nc2ccccc21)C(=O)N[C@H](Cc1c[nH]c2ccccc12)C(=O)O (stereo partly drawn),"inconclusive: 3.55 µM [inhibitor, single point]",
O=C(CO/N=C/c1ccc(OC(F)F)cc1)NCc1ccc(F)cc1,"inconclusive: 0.501 µM [inhibitor, full curve, poor fit]",

SMILES,Potency,"activity change, negative = inhibition"
C[C@]12c3[nH]c4cc(-c5ccco5)ccc4c3CCN1C(=O)[C@@H](CC(=O)NCCCn1ccnc1)C[C@@H]2C(=O)N1CCCCC1,"inconclusive: 31.6 µM [inhibitor, single point]",
Cc1[nH]c2ccccc2c1C(=O)CSc1nc2cc(S(=O)(=O)N3CCCCC3)ccc2o1,active: 7.08 µM,
C=CC[C@@H](CC(=O)N(CCO)Cc1ccccc1)C(=O)N[C@@H](C)COC(=O)[C@@H](CC=C)Cc1ccc(F)cc1,"inconclusive: 8.91 µM [inhibitor, partial curve]",
O=C(O)Cn1ncc2ccccc2c1=O,,inactive: -3.84%
COc1ccc(C)cc1-n1nnnc1SCC(=O)NC(=O)NCc1ccco1,"inconclusive: 20 µM [inhibitor, single point] and inconclusive: 31.6 µM [inhibitor, single point]",
CCn1c(C)c(C)c2cc(C(=O)NCCN3CCCCCC3)ccc21,active: 12.6 µM,
COc1ccc(OC)c(NC(=O)C2CCN(S(=O)(=O)c3ccc4c(c3)CC(C)N4C(C)=O)CC2)c1 (stereo not drawn),,inactive: -16.4%
CC(Nc1ccc([N+](=O)[O-])cc1[N+](=O)[O-])c1ccccc1 (stereo not drawn),"inconclusive: 7.94 µM [inhibitor, partial curve]",
CN(C)c1ncc(C2=C(Cl)C(=O)C(N3CCCC3)=C(Cl)C2=O)s1,active: 7.94 µM,
COc1ccc(CCNC(=O)C2CCCN(Cc3nc(-c4cccc(Cl)c4)oc3C)C2)cc1OC (stereo not drawn),active: 10 µM,
O=C(CSc1nc2ccccc2c(=O)n1C1CC1)NCc1ccccc1,,inactive: 7.58%
CC(C)Nc1ncnc2c1cnn2-c1ccccc1,"inconclusive: 10 µM [inhibitor, partial curve]",
Cc1cccc(-c2cccc(NC(=O)C3CCCN(C(=O)c4csc(C)n4)C3)c2)c1 (stereo not drawn),active: 7.94 µM,
CCOC(=O)c1cnc(SCC(=O)Nc2cc(OC)cc(OC)c2)nc1N,"inconclusive: 14.1 µM [inhibitor, single point]",
O=C(CNC(=S)N(Cc1ccccc1)Cc1cccnc1)NCCN1CCOCC1,,inactive: 12.2%
O=C(CSc1nnc(Cn2nnc3ccccc32)o1)Nc1ccc(Cl)cc1,,inactive: 12.1%
CN(C)c1nc(SCCOC(=O)c2ccccc2)nc(N(C)C)n1,"inconclusive: 31.6 µM [inhibitor, single point]",
COc1ccc(OC)c2nc(-c3cccnc3)ccc12,"inconclusive: 10 µM [inhibitor, partial curve]",
CCCCn1c(O)c(C(C)=NCCc2c[nH]c3ccccc23)c(=O)[nH]c1=O,"inconclusive: 31.6 µM [inhibitor, single point]",
COc1cc(NC(=O)c2ccccc2F)c(OC)cc1NC(=O)CN1CCCCC1,"inconclusive: 2.82 µM [inhibitor, full curve]",
CCOC(=O)c1c(C)n(C)c2ccc(OC)c(NC(=O)CN3CCN(Cc4ccccc4)CC3)c12,"inconclusive: 6.31 µM [inhibitor, full curve]",
Cn1c(=O)c(=O)n(C)c2cc(S(=O)(=O)CCC(=O)N3CCOCC3)ccc21,inactive,
